Lines with a small IC50 respond at low doses; a fit beyond the top or the lowest dose is shown as a bound at that dose. AUC, from the same fit, is the share of area under the viability curve across the 256-fold dose range: 1 means no effect, lower means more sensitive. For part of these data: An inferred top dose is not printed in the source and was worked back from the curve model.
What was measured:
Test in all cases: Viability of human cancer cell lines after 72 h of drug (GDSC screen)
Axitinib = compound: CNC(=O)c1ccccc1Sc1ccc2c(/C=C/c3ccccn3)n[nH]c2c1 [Axitinib]; conditions: top dose 2 µM
Method: (§1)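 Human cancer cell lines in 384-well plates, medium with 10% serum, drug for 72 h over a 256-fold dose range (nine 2-fold or five 4-fold steps up to the top dose). Adherent lines were fixed and stained with the nucleic acid dye Syto60, suspension lines read with resazurin; signal relative to control wells, capped at 0 and 100%. One two-parameter sigmoid per drug and line, fitted in a mixed model over all curves with the slope shared within a line.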

Vorinostat = compound: O=C(CCCCCCC(=O)Nc1ccccc1)NO [Vorinostat]; conditions: top dose 10 µM
Method: as §1

Dabrafenib = compound: CC(C)(C)c1nc(-c2cccc(NS(=O)(=O)c3c(F)cccc3F)c2F)c(-c2ccnc(N)n2)s1 [Dabrafenib]; conditions: top dose 10 µM
Method: as §1

SN-38 = compound: CCc1c2c(nc3ccc(O)cc13)-c1cc3c(c(=O)n1C2)COC(=O)[C@]3(O)CC [SN-38]; conditions: top dose 0.05 µM; top dose inferred
Method: as §1

Methotrexate = compound: CN(Cc1cnc2nc(N)nc(N)c2n1)c1ccc(C(=O)N[C@@H](CCC(=O)O)C(=O)O)cc1 [Methotrexate]; conditions: top dose 0.2 µM
Method: as §1

Cell Line | AUC (Axitinib) | IC50 (Axitinib) [nM] | AUC (Vorinostat) | IC50 (Vorinostat) [nM] | AUC (Dabrafenib) | IC50 (Dabrafenib) [nM] | AUC (SN-38) | IC50 (SN-38) [nM] | AUC (Methotrexate) | IC50 (Methotrexate) [nM]
UM-UC-3 (bladder, adherent) | 0.946 | > 2000 | 0.789 | 4110 | 0.952 | > 10000 | 0.578 | 5.03 | 0.987 | > 200
KE-37 (lymphoblastic leukaemia, suspension) | 0.923 | 1840 | 0.538 | 775 | 0.532 | 747 | 0.377 | 1.56 | 0.49 | 11.8
COR-L279 (small cell lung carcinoma, suspension) | 0.986 | > 2000 | 0.684 | 1910 | 0.969 | > 10000 | 0.28 | 0.809 | 0.785 | 76
H290 (mesothelioma, adherent) | 0.907 | > 2000 | 0.513 | 678 | 0.915 | > 10000 | 0.534 | 3.84 | 0.985 | > 200
LCLC-103H (large cell lung carcinoma, adherent) | 0.952 | > 2000 | 0.745 | – | 0.99 | > 10000 | 0.977 | > 50 | 0.826 | 106
DBTRG-05MG (glioma, adherent) | 0.95 | > 2000 | 0.828 | 7680 | 0.36 | 240 | 0.545 | 4.24 | 0.77 | 88.8
LB373-MEL-D (melanoma, adherent) | 0.973 | > 2000 | 0.807 | 5010 | 0.989 | > 10000 | 0.939 | > 50 | 0.99 | > 200
MONO-MAC-6 (acute myeloid leukaemia, suspension) | 0.942 | > 2000 | 0.493 | 598 | 0.769 | 4000 | 0.575 | 5.08 | 0.379 | 5.69
Hs633T (fibrosarcoma, adherent) | 0.914 | > 2000 | 0.526 | 724 | 0.525 | 723 | 0.309 | 1.02 | 0.988 | > 200
RCC-JF (kidney, adherent) | 0.908 | > 2000 | 0.683 | 2170 | 0.725 | 2980 | 0.549 | 4.31 | 0.983 | > 200
IM-9 (myeloma, suspension) | 0.97 | > 2000 | 0.696 | 2020 | 0.939 | > 10000 | 0.485 | 2.87 | 0.612 | 24.2
BALL-1 (B-cell leukaemia, suspension) | 0.997 | > 2000 | 0.602 | 1110 | 0.994 | > 10000 | 0.43 | 2.11 | 0.639 | 27.1
MOLM-16 (acute myeloid leukaemia, suspension) | 0.886 | 1750 | 0.445 | 452 | 0.919 | > 10000 | 0.533 | 3.8 | 0.924 | > 200
